# Assay results: the supplement of paper PMC10338343
# ± gives the standard deviation. This is a selection; strong and weak results do not stand in their true shares.
# Test system: MIWI (PIWIL1) piRISC loaded with piRNA #1 (30 nt)
# Assay: pre-steady-state target cleavage rate (min^-1); MIWI and MILI are mouse PIWI proteins and EfPiwi is from a freshwater sponge; tags in brackets are library labels; higher = faster piRNA-guided slicing of the target
# Details: guide: piRNA #1 5'p-UGAGGUAGUAGGUUGUAUAGUAUCCAGAGG; auxiliary factor: 500 nM mouse GTSF1
# Outline: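 Cleave-'n-Seq: 1 nM active affinity-purified piRISC with one synthetic guide and 0.1 nM transcribed, DNA-blocked target RNA library were mixed, with or without 500 nM GTSF1 partner protein, in HEPES–potassium acetate buffer at 33 °C for 0–8 or 0–960 min. Uncleaved targets were sequenced and normalised to depth and to weakly complementary targets, three trials were pooled, and k3 was capped at 0.0001 min^-1. The pre-steady-state cleavage rate was fitted […].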
row,Sequence,pre-steady-state target cleavage rate
1,GGACAGGAUACUAUACAACGUACUACCUCA,0.705 ± 0.043
2,GGACUGGAUACUAAACAACCUACUACCUGA,0.689 ± 0.14
3,CCUCUGGAUACUUUUCAACCUACUACCUCA,1.35 ± 0.087
4,GGAGAGGAUCUAUACAACCUACUACCUCA,1.59 ± 0.09
5,GGAGACCUAUCUAUACAAUCUACUACCUCA,0.214 ± 0.016
6,CCUCUGGAUACUAUACAACCUACUAGCUCA,1.32 ± 0.11
7,GGACUGGAAACUAUACAACCUAGUACCUCA,0.393 ± 0.064
8,GGAGACCUAACUAUACAACCUAGUUCCUCA,0.0155 ± 0.0059
9,CCUCUGGAUACUAUACUACCUACUACGUCA,1.24 ± 0.074
10,CCUCUGGAUACUAUACAACCUAGUUCCUCA,0.114 ± 0.029
11,GGAGAGGUAUCUAUACAACCUACUACCUCA,0.488 ± 0.043
12,GGAGACCAUACUAUACAAGCUACUACCUGA,0.709 ± 0.042
13,CGACUGGAUACUAUACAACCUACUACCUCA,1.99 ± 0.12
14,GGAGACCUAUGAUAUGUUCCUAGCUACCUCA,< 0.0001
15,GGUCUGGAUUCUAUACAACCUAGUACCUCA,0.515 ± 0.067
16,GGAGAGGAUACUAUAGAACCUACAACCUCA,0.00304 ± 0.0026
17,GGAGACCUUACUAUACAGCCUACUACCUCA,0.421 ± 0.023
18,GGAGACGAUACUAUACAACGUACUACCACA,0.766 ± 0.072
19,GCUGUCGAUACUAUACAACCUACUACCUCA,1.7 ± 0.11
20,GGAGACCUAUCUAUACAACCAACUACGUCA,0.0108 ± 0.0024
21,GCUCUGGAUACUAUACAACCUACAACGUCA,0.425 ± 0.057
22,GGACUGGAUACUAUACAUCCUACUACCUCA,1.53 ± 0.096
23,GGAGACCUUACUAUACAACCUACUUCCUCA,0.399 ± 0.035
24,GGUCUCGAUACUAUACAACCUACUUCCUCA,0.173 ± 0.045
